Out of some 410,000 compounds screened, about 5,000 (1.2%) were called active. The shares of active, inactive and inconclusive entries below differ from those in the screen. The call rests on the fitted dose curve; in most records, active means well fitted inhibition curve with a large enough effect; inconclusive means small, poorly fitted or top-dose-only effect; inactive means no such curve, though single readings can be large or run the other way. Potencies beside an inconclusive call are fits to weak or partial responses and may not hold up.
Assay: qHTS for Inhibitors of TGF-b; further: nearly all actives have a fitted effect of over 65% in size
Conditions: HepG2 CAGA-GFP TGF-b/SMAD3 reporter, GFP fluorescence, 18 h, TGF-beta stimulated, 500 pg/mL final; series mostly up to 46.1 µM; activity, negative = inhibition: at the top concentration
Outline: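 Per well, imaged GFP fluorescence of HEPG2 CAGA-GFP cells gives the signal; cells get compound, then TGF-beta (500 pg/mL final), 18 h at 37 degrees C; %Activity versus -TGF-beta and +DMSO controls.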
For CCn1c(NCc2ccc(OC)cc2)nc2ccccc21, the Potency was “inactive”. For COc1ccc(CCNC(=O)CCCCn2c(=O)c3ccccc3n(Cc3ccccc3C)c2=O)cc1OC, the Potency was inconclusive: 35.5 µM [inhibitor, single point]. With O=C(NCCc1ccccc1)c1ccc(Cn2c(SCc3cccc(F)c3)nc3cccnc32)cc1 the Potency was inconclusive: 0.631 µM [inhibitor, full curve]. With CCN(CC)S(=O)(=O)c1ccc(OC)c(NC(=O)c2cccc(C)c2[N+](=O)[O-])c1 the Potency was inconclusive: 17.8 µM [inhibitor, partial curve, poor fit]. In the case of COc1cc(/C=N/Nc2ccc(F)cc2F)cc(OC)c1O, the Potency is reported as inconclusive: 20 µM [inhibitor, partial curve, poor fit]. For Cc1ccc(C(=O)Nc2ccc(N3CCN(C)CC3)nc2)cc1, the “activity, negative = inhibition” value was inactive: 2.92%. For COc1cccc(C(=O)Nc2ccc(N3CCN(Cc4ccccc4)CC3)cc2)c1, the Potency was inconclusive: 6.31 µM [inhibitor, full curve]. With CC(C)(C)c1cc(CP(=O)(c2ccccc2)c2ccccc2)cc(C(C)(C)C)c1O the Potency was inconclusive: 35.5 µM [inhibitor, single point]. With Nc1c(Cl)cc(C2=NCCn3nc4cc(C(F)(F)F)ccc4c32)cc1Cl the Potency was inconclusive: 31.6 µM [inhibitor, single point]. With CC(C)(C)OC(=O)C[C@H]1C/C=C\C[C@H](CC(=O)NCCO)C(=O)NC[C@@H](c2ccccc2)OC1=O the Potency was inconclusive: 5.62 µM [inhibitor, single point]. With CCOC(=O)C1Nc2ccccc2C2c3ccccc3CC12 (centres undefined) the Potency was inconclusive: 14.1 µM [inhibitor, single point]. In the case of COc1ccc(CCC(=O)Nc2ccc(S(=O)(=O)N3CCOCC3)cc2)cc1, the Potency is reported as inconclusive: 0.1 µM [inhibitor, full curve, poor fit]. For CCN(CC(=O)NCCc1ccc(Cl)cc1)Cc1nc2ccccc2c(=O)[nH]1, the Potency was inconclusive: 0.112 µM [inhibitor, full curve, poor fit]. In the case of C#CC(=O)N(c1cccc(OC)c1)C(C(=O)NC1CCCC1)c1cccs1 (centres undefined), the Potency is reported as active: 22.4 µM. In the case of Cc1cccc2c1c(N=NC(N)=S)c(O)n2C1OC(CO)C(O)C(O)C1O (centres undefined), the “activity, negative = inhibition” value is reported as inactive: -1.32%. For O=C(NCc1cccnc1)c1ccc2c(c1)OCO2, the Potency was inconclusive: 0.562 µM [inhibitor, full curve, poor fit]. With CCOC(=O)C1=C(C)NC(=O)CC1c1ccccc1 (centres undefined) the “activity, negative = inhibition” value was inactive: 19.6%. In the case of O=C(Nc1cccnc1)c1ccco1, the “activity, negative = inhibition” value is reported as inactive: -1.58%. For COc1ccc(N(CC(=O)NCc2ccccc2Cl)S(=O)(=O)c2c(C)nn(C)c2C)cc1, the Potency was inconclusive: 22.4 µM [inhibitor, single point]. In the case of COc1ccc(CCNC(=O)Cn2c(=O)nc(-c3ccccc3)c3ccccc32)cc1OC, the “activity, negative = inhibition” value is reported as inactive: -12.6%. For CCOc1ccccc1CNC(=O)CCCn1ncn2c(cc3occc32)c1=O, the Potency was inconclusive: 35.5 µM [inhibitor, single point]. In the case of Cc1ccc(OCCN2CCC2(C)C(=O)Nc2ccc3c(c2)OCO3)cc1 (centres undefined), the “activity, negative = inhibition” value is reported as inactive: -9.69%. For COc1cccc(NC(=O)COc2ccc(C(=O)N3CCN(C)CC3)cc2)c1, the “activity, negative = inhibition” value was inactive: -0.685%. In the case of O=C(COC(=O)CCNS(=O)(=O)c1ccccc1)NC(=O)c1ccccc1, the “activity, negative = inhibition” value is reported as inactive: 0%. With CCOc1ccc(N(CC(=O)NCCSCc2ccco2)S(=O)(=O)c2ccc(F)cc2)cc1 the “activity, negative = inhibition” value was inactive: -6.57%. With CCOc1ccc(C(=O)Nc2cccc(-c3ccc(N4CCOCC4)nn3)c2)cc1OCC the “activity, negative = inhibition” value was inactive: 13.2%. With COc1ccccc1Oc1ccc(N/C=C/C(=O)c2ccc(C)o2)cc1 the Potency was inconclusive: 35.5 µM [inhibitor, single point]. In the case of C=C1C=C(C)n2ncc(C(=O)N(CCc3ccccc3)Cc3ccccc3)c2N1, the Potency is reported as inconclusive: 3.55 µM [inhibitor, partial curve]. For CCSc1nnc(NC(=O)CSc2ncccn2)s1, the Potency was inconclusive: 35.5 µM [inhibitor, single point]. In the case of O=C(NCCCN1CCCC1=O)C1CCC(CNS(=O)(=O)c2ccc(Cl)cc2)CC1 (centres undefined), the “activity, negative = inhibition” value is reported as inactive: -0.514%. In the case of Cc1ccc(-c2nc3cnccn3c2Nc2c(C)cccc2C)o1, the Potency is reported as inconclusive: 25.1 µM [inhibitor, partial curve, poor fit]. For Cn1c(=O)c(=O)n(C)c2cc(NC(=O)c3cccc(F)c3)c(Cl)cc21, the Potency was inconclusive: 35.5 µM [inhibitor, single point]. In the case of COc1ccc(OC)c(-c2cc(C(=O)Nc3c(C)nn(Cc4ccccc4Cl)c3C)no2)c1, the Potency is reported as inconclusive: 20 µM [inhibitor, partial curve, poor fit]. In the case of O=C(Nc1nnc(C(F)(F)F)s1)c1ccc(Br)s1, the Potency is reported as inconclusive: 5.62 µM [inhibitor, single point]. For COc1ccccc1NC(=O)COC(=O)c1ccc([N+](=O)[O-])s1, the Potency was inconclusive: 12.6 µM [inhibitor, partial curve]. In the case of COc1ccc(C(=O)C2CCCN(Cc3cccn3-c3ccc(Cl)cn3)C2)c(OC)c1 (centres undefined), the Potency is reported as inconclusive: 15.8 µM [inhibitor, single point]. For CC(C)OC(=O)Nc1ccc2c(c1)N(C(=O)CCN1CCOCC1)c1ccccc1CC2, the “activity, negative = inhibition” value was inactive: 4.82%. For O=C(COC(=O)CCS(=O)(=O)c1ccccc1)NNC(=O)c1ccc([N+](=O)[O-])cc1, the “activity, negative = inhibition” value was inactive: -1.51%. In the case of COc1c2c(c(OC)c3c1c(=O)c1ccccc1n3C)OCO2, the Potency is reported as inconclusive: 22.4 µM [inhibitor, single point]. In the case of CCNC(=O)C1(C)CCCN(Cc2noc(-c3ccccc3OC)n2)C1 (centres undefined), the Potency is reported as inconclusive: 3.98 µM [inhibitor, single point]. With O=C(CSC1=Nc2ccccc2N=C(c2ccc(F)cc2)C1)Nc1cccc(C(F)(F)F)c1 the Potency was inconclusive: 15.8 µM [inhibitor, single point]. For NS(=O)(=O)c1ccc(-c2ccc(/C=N/NC(=O)c3ccc([N+](=O)[O-])cc3)o2)cc1, the “activity, negative = inhibition” value was inactive: 6.93%. In the case of COc1ccc2c(c1)c(C(O)CN1CCN(Cc3ccc4c(c3)OCO4)CC1)c(C)n2C (centres undefined), the Potency is reported as inconclusive: 25.1 µM [inhibitor, partial curve, poor fit]. With CCn1nc(C)c(/C=N/NC(=O)CSc2ccccn2)c1C the “activity, negative = inhibition” value was inactive: 0%. With CCc1ccc(NC(=O)CC2C(=O)N(c3cccc(C)c3)C(=O)N2CCC(C)C)cc1 (centres undefined) the Potency was inconclusive: 35.5 µM [inhibitor, single point]. With O=C(/C=C/c1cccc(F)c1)NCCCn1ccnc1 the “activity, negative = inhibition” value was inactive: 1.17%. In the case of COc1ccccc1NC(=O)CCn1nc(-c2ccccc2OC)c2c(C)cc(C)nc21, the Potency is reported as inconclusive: 10 µM [inhibitor, single point]. For CCC(=O)N1CCc2cc(Br)cc(S(=O)(=O)CCC(=O)N3CCN(c4ccc(F)cc4)CC3)c21, the Potency was inconclusive: 35.5 µM [inhibitor, single point]. In the case of O=C(C1CCN(S(=O)(=O)c2ccc(-n3cnnn3)cc2)CC1)N1CCCCC1, the “activity, negative = inhibition” value is reported as inactive: -0.667%. For CCCn1cnc2c(SCCc3ccccc3)nc(N)nc21, the Potency was inconclusive: 35.5 µM [inhibitor, partial curve, poor fit]. For O=[N+]([O-])c1cc(Cl)c2cccnc2c1O, the Potency was inconclusive: 12.6 µM [inhibitor, single point]. For CN(Cc1ccccc1)C(=O)c1ccc(NC(=O)Cc2cccc(NC(=O)C3CCCN(C(=O)CCc4ccccc4)C3)c2)cc1 (centres undefined), the Potency was inconclusive: 14.1 µM [inhibitor, partial curve, poor fit]. For Cn1c(/C(C#N)=C2/CCCCCN2)nc2ccccc21, the Potency was inconclusive: 1.26 µM [inhibitor, full curve, poor fit]. For COc1ccc(CNC(=O)CN(c2ccc(C(C)C)cc2)S(=O)(=O)c2c(C)nn(C)c2C)cc1, the “activity, negative = inhibition” value was inactive: -46.8%. In the case of OCCNCC12CC3CC(CC(C3)C1)C2, the “activity, negative = inhibition” value is reported as inactive: -3.53%. With O=C(Cc1ccccc1)Nc1ccc(NC(=O)c2ccco2)cc1Cl the “activity, negative = inhibition” value was inactive: 21.8%. For CC1CCC2C(=O)N(c3cccc(OS(=O)(=O)c4ccccc4)c3)C(=O)C2C1 (centres undefined), the Potency was inconclusive: 0.1 µM [inhibitor, full curve, poor fit]. For CS(=O)(=O)N(CCC(=O)O)Cc1ccccc1, the Potency was inconclusive: 0.251 µM [inhibitor, full curve]. For O=C(CCCN1C(=O)c2cccc3cccc(c23)C1=O)N1CCN(c2ccc(F)cc2)CC1, the “activity, negative = inhibition” value was inactive: -28.8%. For O=C1NCCCc2c1oc1ccc(O)cc21, the “activity, negative = inhibition” value was inactive: -31.3%. For COC(=O)[C@@H]1C[C@@]2(O)[C@@H](O)[C@@H](O)[C@@H](O)C[C@H]2N1Cc1ccc(-c2ccccc2)cc1, the Potency was inconclusive: 17.8 µM [inhibitor, single point]. With CN(Cc1cn(C)nc1-c1ccc(Oc2ccccc2)cc1)Cc1cnc2ccccn12 the Potency was inconclusive: 35.5 µM [inhibitor, single point]. With COc1ccc(OC)c(NC(=O)c2c(NCc3sccc3C)sc3c2CCCCC3)c1 the “activity, negative = inhibition” value was inactive: -7.74%. With Cn1cnc([N+](=O)[O-])c1S(=O)(=O)Oc1ccccc1 the Potency was inconclusive: 15.8 µM [inhibitor, single point]. With CCN(CC)CCCN1CC(O)=C(c2nc3ccccc3s2)C1=N the “activity, negative = inhibition” value was inactive: 31.3%. With Cc1c(C(=O)NC2CCCc3ccccc32)oc2ccc(S(=O)(=O)N3CCOCC3)cc12 (centres undefined) the “activity, negative = inhibition” value was inactive: -4.93%. For CCC(C(=O)OCc1cc(=O)n2nc(C)sc2n1)c1ccccc1 (centres undefined), the Potency was inconclusive: 35.5 µM [inhibitor, partial curve, poor fit]. In the case of COc1cc(/C=C/c2ccc3c(Br)cc(Br)c(O)c3n2)ccc1O, the Potency is reported as inconclusive: 14.1 µM [inhibitor, single point]. For CCc1ccc(CCC(=O)N2CCN(S(=O)(=O)c3sc(C(=O)O)c(C)c3C(=O)O)CC2)cc1, the Potency was inconclusive: 0.708 µM [inhibitor, partial curve, poor fit].
On the % scale 0 is the no-effect control and ±100 the full control effect; potency means the concentration at half of the fitted maximal effect; tags describe the fitted curve by direction and shape.
